Assay results as given in PMC4336329 (PLoS ONE, 2015).
The whole screen tested about 310,000 compounds, of which about 2,200 (0.71%) showed an effect of 50% or more. Effects have a minus sign here. The list shows a part of the results.

What follows are compounds tested against human ether-à-go-go-related gene (hERG) potassium channel (human, UniProt Q12809) (assay: primary screen, population patch clamp on CHO cells stably expressing hERG).
human ether-à-go-go-related gene (hERG) potassium channel, sequence (Q12809 whole entry, looked up): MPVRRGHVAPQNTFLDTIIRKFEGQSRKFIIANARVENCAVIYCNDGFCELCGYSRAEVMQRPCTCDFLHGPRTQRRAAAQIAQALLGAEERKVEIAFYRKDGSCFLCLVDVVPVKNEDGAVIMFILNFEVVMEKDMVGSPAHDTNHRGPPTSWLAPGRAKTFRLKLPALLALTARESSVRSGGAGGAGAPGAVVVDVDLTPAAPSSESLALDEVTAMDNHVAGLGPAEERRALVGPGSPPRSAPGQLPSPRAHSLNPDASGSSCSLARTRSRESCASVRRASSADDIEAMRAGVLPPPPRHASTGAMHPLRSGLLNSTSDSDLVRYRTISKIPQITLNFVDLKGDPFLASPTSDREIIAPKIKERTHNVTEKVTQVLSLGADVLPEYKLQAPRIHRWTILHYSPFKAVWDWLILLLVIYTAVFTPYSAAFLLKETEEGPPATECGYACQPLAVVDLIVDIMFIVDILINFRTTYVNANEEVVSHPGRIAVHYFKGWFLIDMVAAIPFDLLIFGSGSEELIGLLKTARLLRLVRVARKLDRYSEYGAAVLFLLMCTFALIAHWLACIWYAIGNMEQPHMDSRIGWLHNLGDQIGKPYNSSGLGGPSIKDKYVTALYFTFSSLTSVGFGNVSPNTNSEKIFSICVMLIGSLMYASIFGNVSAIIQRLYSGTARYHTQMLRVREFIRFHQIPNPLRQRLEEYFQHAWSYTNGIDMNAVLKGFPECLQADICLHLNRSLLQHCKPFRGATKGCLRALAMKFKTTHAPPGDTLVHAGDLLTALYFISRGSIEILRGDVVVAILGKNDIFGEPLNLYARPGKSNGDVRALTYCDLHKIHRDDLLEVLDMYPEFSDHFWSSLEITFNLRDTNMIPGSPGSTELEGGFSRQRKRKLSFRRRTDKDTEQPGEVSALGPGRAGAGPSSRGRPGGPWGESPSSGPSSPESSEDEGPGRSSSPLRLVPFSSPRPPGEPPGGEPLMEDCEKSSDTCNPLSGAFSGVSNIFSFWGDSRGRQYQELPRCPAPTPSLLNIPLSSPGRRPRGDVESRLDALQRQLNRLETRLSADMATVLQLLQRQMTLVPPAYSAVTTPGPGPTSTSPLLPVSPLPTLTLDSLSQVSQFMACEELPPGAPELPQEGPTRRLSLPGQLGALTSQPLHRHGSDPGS

SMILES	hERG current change (%, negative = inhibition) at 1uM
NC(=O)c1ccccc1OCc1cccc2ccccc12	15.5%
CC(C)(C)c1cc(N)on1	14%
C=CCSc1nnc(-c2ccc([N+](=O)[O-])cc2)o1	7.94%
COc1ccc(-c2nnc(-c3ccc(N)cc3)o2)cc1	11.8%
Cc1occc1C(=O)NNC(=O)Cc1ccccc1	11.7%
CCNc1ccc(C(=O)OCC(=O)NCc2ccccc2Cl)cc1[N+](=O)[O-]	0.92%
O=C1CC(NS(=O)(=O)c2ccccc2F)CN1c1ccc2c(c1)OCCO2 (centres unmarked)	3.81%
Cc1ccc(NC(=O)COC(=O)CSC(=S)N2CCOCC2)cc1C	21.3%
Cc1cccc(OCC(=O)N/N=C/c2cn[nH]c2-c2ccc(Cl)c(Cl)c2)c1	11.8%
CCN(CC)C(=O)CSc1nc2ccccc2c(=O)n1CCC(=O)N1CCN(c2ccccc2)CC1	-7.16%
CCn1c(SCC(=O)NC2CCCCC2)nc2c(c1=O)SCC2	15.7%
CCc1ccc2c(CN3CCN(Cc4ccccc4)CC3)cc(=O)oc2c1	-84.6%
COc1ccc(/C=N/NC(=O)CNC(=O)c2ccncc2)cc1OC	14.1%
CC(C)(C)C(=O)Nc1nnc(SCC(=O)NC2CC2)s1	13.5%
COc1ccc(CCNC(=O)C2CCN(S(=O)(=O)c3c(C)noc3C)CC2)cc1OC	1.05%
N#Cc1ccc(OCc2ccc(C(=O)O)o2)cc1	9.58%
Cc1ccc(S(=O)(=O)c2ccccc2)cc1S	1.9%
CC1(C)CC(=O)C2=C(C1)Nc1ccccc1NC2c1cc(Cl)ccc1O (centres unmarked)	3.3%
CCOC(=O)c1sc2nc(NC(=O)C3CCCCC3)sc2c1C	15.5%
CCn1c(SCC(=O)NC2CCCCC2)nc2c(c1=O)SC(C)C2 (centres unmarked)	3.36%
Cc1ccc(S(=O)(=O)NCCC(=O)NCc2ccc(Cl)cc2)cc1C	5.14%
O=C(O)c1ccc(N/N=C/c2ccc3c(c2)OCO3)cc1	12.6%
COC(=O)CSc1nc2ccccc2n1CC(=O)N(C(C)C)C(C)C	-25%
Nc1nnnn1/N=C/c1cc([N+](=O)[O-])ccc1O	17.5%
COc1ccc(C2CCCN2C(=S)Nc2ccc(C)cc2Cl)cc1OC (centres unmarked)	5.08%
COc1ccc(NC(=O)c2nn(C)cc2[N+](=O)[O-])cc1	12.2%
